Experimental data taken from PubChem BioAssay AID1508623 (National Center for Advancing Translational Sciences (NCATS), 2021).
Hit rate of the full screen: of about 48,000 compounds, about 450 (0.94%) were called active. Inconclusive results (about 19%) are left out. Calls come from the whole dose curve; as a rule, active = well fitted inhibition curve with a large enough effect; inconclusive = small, poorly fitted or top-dose-only effect; inactive = no such curve, though single readings can be large or run the other way. The list shows a part of the results.

Assay: Primary qHTS for Identification of Small Molecule Inhibitors of Huntingtin Promoter Activity; note: nearly all actives have a fitted effect of over 50% in size
Settings: HEK293 HTT promoter firefly luciferase reporter (activity 0% = vehicle and -100% = no light), 24 h; series mostly up to 57.5 µM; activity change, negative = inhibition: at the top concentration
In short: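 Firefly luciferase readout (Dual-Glo, 10 min RT) after 24 h, 37 °C compound exposure (final up to 57.5 uM) of HEK293 reporter cells cultured 24 h beforehand; PTC124 at 50 uM final as control inhibitor; activity scaled vehicle 0%, zero RLU -100%.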
Potency is the fitted concentration of half-maximal effect.

Row | SMILES | activity change, negative = inhibition | Potency
1 | CC1=C(C(=O)Nc2cccnc2)C(c2cccc(F)c2)n2nc(SCc3ccccc3F)nc2N1 (stereo not given) | inactive: -8.91% | 
2 | O=C(CSc1nc(=O)[nH]c2c1CCCC2)NCc1ccccc1Cl | inactive: -8.16% | 
3 | COc1ccc(C)cc1NC(=O)c1cc(S(=O)(=O)N2CCOCC2)cn1C | inactive: 27.6% | 
4 | CCn1c2ccccc2c2cc(CN3CCN(Cc4cc(OC)c(O)c(OC)c4)CC3)ccc21 | inactive: -1.72% | 
5 | O=C(Nc1cccc(Cl)c1Cl)c1ccc2c(c1)N(Cc1cccc(Cl)c1)C(=O)c1ccccc1S2=O (stereo not given) | inactive: -14.4% | 
6 | Cc1ccc(NC(=O)c2sc3ncn(Cc4cccc(F)c4)c(=O)c3c2C)c(Br)c1 | inactive: 19.7% | 
7 | Cc1ccc(C)c(NC(=O)Cn2nc(C)c3nn(-c4ccc(Cl)cc4)c(C)c3c2=O)c1 | inactive: -17% | 
8 | CCOc1ccccc1NC(=O)CCCc1nc(-c2ccccc2Cl)no1 | inactive: -10.8% | 
9 | COc1ccc(CNC(=O)CCS(=O)(=O)c2cc(Br)cc3c2N(C(C)=O)C(C)C3)cc1 (stereo not given) | inactive: -18.2% | 
10 | CCOc1ccc(CCNC(=O)c2cc3c(=O)n(CC)c4ccccc4c3s2)cc1OCC | inactive: 3.49% | 
11 | CCc1cccc(NC(=O)CSc2nncn3c2cc2sccc23)c1 | inactive: 3.58% | 
12 | Cc1ccc(Cl)cc1N1CCN(C(=O)CN2C(=O)COc3ccc(S(=O)(=O)N4CCCCCC4)cc32)CC1 | inactive: -31.3% | 
13 | CCN(Cc1ccccc1)C(=O)c1cc(-c2ccccc2)n[nH]1 | inactive: 5.96% | 
14 | Cc1c(C(=O)O)c(O)cc2c1C(=O)c1c(O)c([C@@H]3O[C@H](CO)[C@@H](O)[C@H](O)[C@H]3O)c(O)c(O)c1C2=O | inactive: -7.24% | 
15 | Cc1c(C)n(Cc2ccccc2)c2ccc(C(=O)N3CCN(c4ccc(F)cc4)CC3)cc12 | inactive: -11.7% | 
16 | Cn1cnc(S(=O)(=O)N2CCCC(C(=O)NCc3ccc(Cl)cc3)C2)c1 (stereo not given) | inactive: -23.7% | 
17 | CCN(CC)S(=O)(=O)c1ccc2c(c1)N(CC(=O)N1CCN(c3ccc(OC)cc3)CC1)C(=O)CO2 | inactive: -9.79% | 
18 | Cc1ccccc1Nc1c(-c2cccc(Cl)c2)nc2ncccn12 | inactive: -9.03% | 
19 | COc1ccc(-n2c(SCC(N)=O)nc3c(oc4ccccc43)c2=O)cc1 | inactive: -20.2% | 
20 | CC(C)CN1CCc2nc(Nc3ccc(F)cc3F)ncc2C1 | inactive: 52.6% | 
21 | Cc1ccccc1OCC(O)CO (stereo not given) | inactive: 8.62% | 
22 | CC(=O)N1CCc2c(sc3c2c(=O)n(Cc2ccccc2)c(=O)n3Cc2ccccc2F)C1 | inactive: -23.6% | 
23 | O=C(Cc1cccs1)Nc1c(C(=O)Nc2ccc(F)cc2)oc2ccccc12 | inactive: 4.5% | 
24 | Cc1[nH]c(C=C2C(=O)Nc3ccc(S(=O)(=O)Cc4c(Cl)cccc4Cl)cc32)c(C)c1C(=O)N1CCC[C@H]1CN1CCCC1 | inactive: -2.19% | 

Row | SMILES | activity change, negative = inhibition | Potency
25 | CCC(Sc1nc(-c2ccc(F)cc2)nc2c1Cc1c(CO)cnc(C)c1O2)C(=O)Nc1ccc(F)cc1 (stereo not given) | inactive: -13.6% | 
26 | COc1c(Cl)cc(C(=O)N(Cc2ccccc2F)C2CCS(=O)(=O)C2)cc1Cl (stereo not given) | inactive: 3.05% | 
27 | CC(C)(C)OC(=O)N1CCc2nc(N3CCN(c4ncccn4)CC3)ncc2C1 | inactive: 17.1% | 
28 | Cn1c(=O)c2c(nc(SCC(=O)Nc3ccc(F)cc3)n2Cc2ccccc2F)n(C)c1=O | inactive: 9.15% | 
29 | COc1ccc(C(CNC(=O)c2ccc(F)cc2)N2CCCC2)cc1 (stereo not given) | inactive: 0.0573% | 
30 | Cc1cc(C)cc(NC(=O)N2CCC(CN3CCCCCC3)CC2)c1 | inactive: -11% | 
31 | CCCSc1ncc(Cl)c(C(=O)Nc2c(C(=O)c3ccc(C)cc3)oc3ccccc23)n1 | inactive: -8.35% | 
32 | CCC(=O)N1c2ccc(S(=O)(=O)CCC(=O)N3CCN(c4cc(C)ccc4C)CC3)cc2CC1C (stereo not given) | inactive: -23.6% | 
33 | CCOc1ccc2nc(NC(=O)c3nc(SCc4ccccc4C)ncc3Cl)sc2c1 | inactive: -1.56% | 
34 | O=C(CSc1nc2nccnc2c(=O)n1CCc1c[nH]c2ccccc12)Nc1ccccc1 | inactive: -20.2% | 
35 | O=C(NC1CC(=O)N(c2ccccc2)C1)C(c1ccccc1)c1ccccc1 (stereo not given) | inactive: -26.1% | 
36 | COC(=O)c1c(NC(=O)/C(C#N)=C/c2ccc(OC)cc2)sc2c1CCC2 | inactive: 3.59% | 
37 | O=C1CN(/N=C/c2ccc([N+](=O)[O-])o2)C(=O)N1 | inactive: -9.34% | 
38 | Cc1c(CCNC(=O)c2ccc(Br)o2)sc2nc(-c3ccc(Cl)cc3)nn12 | inactive: -8.27% | 
39 | COc1ccc(S(=O)(=O)N2CCC(N3CCN(Cc4ccc(F)cc4)C(=O)C3=O)CC2)cc1 | inactive: -13.8% | 
40 | CCc1ccc(C(=O)c2cn(CC(=O)Nc3cc(OC)ccc3OC)c3nc(C)ccc3c2=O)cc1 | inactive: -20.8% | 
41 | Cc1oc2cc3oc(=O)c(CC(=O)NCc4ccccc4)c(C)c3cc2c1C | inactive: -8.56% | 
42 | CC1=C(CC(=O)O)c2cc(F)ccc2/C1=C\c1ccc(S(C)(=O)=O)cc1 | inactive: -0.702% | 
43 | Cc1ccc(-n2c(=O)c3sc4ccccc4c3n(C)c2=O)cc1F | inactive: -3.56% | 
44 | Cc1ccc(C)c(NC(=O)c2ccc3c(c2)CCCN3S(C)(=O)=O)c1 | inactive: 33.6% | 
45 | COc1cccc(NC(=O)c2oc3ccccc3c2NC(=O)c2ccc(F)c(F)c2)c1 | inactive: 1.23% | 
46 | Cc1ccc(Cl)cc1NC(=O)C1CCCN(S(=O)(=O)c2cccc3cccnc23)C1 (stereo not given) | inactive: -32.5% | 
47 | CCC(=O)N1CCc2cc(Br)cc(S(=O)(=O)N3CCCC(C(=O)Nc4cccc(C)c4C)C3)c21 (stereo not given) | inactive: -16.2% | 
48 | Cc1ccccc1NC(=O)c1c(NC(=O)c2ccco2)sc2c1CCC(C(C)(C)C)C2 (stereo not given) | inactive: -14.5% | 

Row | SMILES | activity change, negative = inhibition | Potency
49 | COc1ccccc1CNC(=O)CSc1nc2nc(C)c(Cc3ccccc3Cl)c(C)n2n1 | inactive: -23.1% | 
50 | CC(=O)[C@@]1(O)CC[C@H]2[C@@H]3C[C@H](C)C4=CC(=O)CC[C@]4(C)[C@H]3CC[C@@]21C | inactive: -11.8% | 
51 | CC(CNC(=O)CN1C(=O)COc2ccc(S(=O)(=O)N3CCCCCC3)cc21)c1ccccc1 (stereo not given) | inactive: -24.3% | 
52 | CCCCNC(=O)c1nn(-c2ccc(C)cc2)c(=O)n(C)c1=O | inactive: 0.136% | 
53 | CCOC(=O)c1c(S(=O)(=O)N2CCCC(C(=O)Nc3cccc(C#N)c3)C2)c(C)n(C)c1C (stereo not given) | inactive: -19.6% | 
54 | Cc1ccccc1CNC(=O)c1cccc(NC(=O)N2CCSc3ncccc32)c1 | inactive: -35.5% | 
55 | CC(Oc1ccccc1)C(=O)Nc1ccc(OCc2cc(=O)n3ccsc3n2)cc1 (stereo not given) | inactive: 16.9% | 
56 | NS(=O)(=O)c1ccc(CCNC(=O)c2ccc3nc(CCc4ccccc4)oc3c2)cc1 | inactive: 0.106% | 
57 | Cc1cc2c(cc1S(=O)(=O)N(C)CC(=O)Nc1ccc(C#N)cc1)OCC(=O)N2 | inactive: -18.9% | 
58 | CCOC(=O)c1c(S(=O)(=O)NCC(=O)Nc2ccc(C)c(N(C)C)c2)c(C)n(C)c1C | inactive: 7.38% | 
59 | Cn1c(=O)c2c(SCC(=O)NCc3ccco3)nc(-c3cccc(F)c3)nc2n(C)c1=O | inactive: -10.3% | 
60 | Cc1ccc(S(=O)(=O)c2cn(CC(=O)Nc3ccccc3C)c3cc4c(cc3c2=O)OCO4)cc1 | inactive: -11.4% | 
61 | CCOc1ccc(CC(=O)Nc2c(C(=O)Nc3ccc(OC)cc3OC)oc3ccccc23)cc1 | inactive: -11.1% | 
62 | C[C@H](N)[C@H](O)c1cccc(O)c1 | inactive: 8.77% | 
63 | COc1ccc(-c2nc3cc(C)ccn3c2NC(=O)c2ccc(F)cc2)cc1 | inactive: 24.1% | 
64 | Cc1nc(NC(=O)N2CCC[C@@H]2C(N)=O)sc1-c1csc(C(C)(C)C)n1 | inactive: -4.65% | 
65 | Cc1cccc(N2CCN(C(=O)CN3C(=O)COc4ccc(S(=O)(=O)N5CCC(C)CC5)cc43)CC2C)c1 (stereo not given) | inactive: -12.3% | 
66 | CCOc1ccc(CNC(=O)c2cnc3sc(N4CCOCC4)nn3c2=O)cc1OC | inactive: -7.59% | 
67 | COc1ccccc1NC(=O)CSc1nc2nccnc2c(=O)n1CCc1c[nH]c2ccccc12 | inactive: -16.8% | 
68 | Cc1cccn2c(Nc3ccccc3)c(-c3cccs3)nc12 | inactive: -17% | 
69 | CCN(CC)CCNC(=O)CSc1nc2nc(C)c(Cc3ccccc3)c(C)n2n1 | inactive: -6.56% | 
70 | CN=C(NC#N)Nc1ccc(C2=NNC(=O)CC2C)cc1 (stereo not given) | inactive: 6.25% | 
71 | CCOc1ccccc1NC(=O)CCn1cnnn1 | inactive: -8.17% | 
72 | Cc1ccccc1CNc1nc(N(C)C)nc2c1cnn2C | inactive: -24.5% | 

Row | SMILES | activity change, negative = inhibition | Potency
73 | Cc1ccc(NC(=O)C2CCN(S(=O)(=O)c3ccc4[nH]c(=O)ccc4c3)CC2)cc1C | inactive: -9.45% | 
74 | Cn1c(=NC(=O)c2ccc(S(=O)(=O)N3CCCC3)cc2)sc2cc(F)ccc21 | inactive: -1.61% | 
75 | CCc1ccccc1NCc1nnc2n1CCCCC2 | inactive: -8.06% | 
76 | O=C1COc2cc(S(=O)(=O)CCC(=O)N3CCN(c4ccccc4F)CC3)c(Cl)cc2N1 | inactive: -22.8% | 
77 | Cc1ccc(-c2nnc(SCC(=O)c3ccc(Cl)cc3)n2-c2ccccc2)cc1 | inactive: -13.1% | 
78 | Cc1cccc(N2CCN(S(=O)(=O)c3ccc4c(c3)C(C(C)C)C(=O)N4)CC2)c1C (stereo not given) |  | active: 12.6 µM
79 | CCOc1ccccc1NC(=O)C1CCN(S(=O)(=O)c2cc(Br)cc3c2N(C(C)=O)CC3)CC1 | inactive: 11.2% | 
80 | COc1cccc(CN2CCCN(CC(=O)Nc3ccc4c(c3)OCCO4)S2(=O)=O)c1 | inactive: -1.91% | 
81 | COc1cccc(N(Cc2nnc3n2CCCCC3)C(=O)Nc2ccccc2)c1 | inactive: -17.2% | 
82 | Cc1nc2nc(NC(=O)c3ccc(C(C)(C)C)cc3)[nH]n2c(=O)c1Cl | inactive: -1.98% | 
83 | CCN(CC)CCOC(=O)C(Cc1cccc2ccccc12)CC1CCCO1 (stereo not given) | inactive: -4.03% | 
84 | CCOc1ccc(CNC(=O)c2ccc3c(c2)N(CC)CCS3)cc1 | inactive: -3.27% | 
85 | CCCCOc1ccc(C(=O)NCCc2sc(-c3ccc(OC)c(OC)c3)nc2C)cc1 | inactive: -30.8% | 
86 | O=C(Nc1cccc(O)c1)c1cc2nc(-c3ccc(Br)cc3)cc(C(F)(F)F)n2n1 | inactive: -13.7% | 
87 | COc1ccc(N2CCN(C(=O)CSc3c4c(nc5ccc(Cl)cc35)CCCC4)CC2)cc1 | inactive: -24.3% | 
88 | COc1ccc(CN(C)c2ccc(-c3nc(-c4ccccc4)no3)cc2[N+](=O)[O-])cc1 | inactive: 38.5% | 
89 | COc1cccc(CCNC(=O)c2cnc3sc(N4CCCCCC4)nn3c2=O)c1 | inactive: -9.84% | 
90 | CCOC(=O)OCC/C(SC(=O)OCC)=C(\C)N(C=O)Cc1cnc(C)nc1N | inactive: -3.34% | 
91 | Cc1ccc(-n2nc3c(=O)n(CC(=O)NC(C)C)nc(C)c3c2C)cc1 | inactive: -4.1% | 
92 | CCC(CC)C(=O)Nc1ccc2nc(SCc3ccccc3)sc2c1 | inactive: -21.6% | 
93 | COc1ccc2c(CC(=O)Nc3ccc(C)cc3)coc2c1 | inactive: 2.82% | 
94 | CS(=O)(=O)c1ncc(Cl)c(C(=O)Nc2c(C(=O)Nc3ccccc3)oc3ccccc23)n1 | inactive: -12.8% | 
95 | CCN(C(=O)CSc1nnc(-c2cc(OC)c(OC)c(OC)c2)o1)c1ccccc1 | inactive: -25.4% | 
